Measurements as given in publication PMC9462479.
No constants are given. Whether binding was seen depends on the method and setting. Binding seen in cells or lysates may run through a third protein. Some binding calls cover weakened binding; strength is not graded here. For some of these results: Sequences can lack the tags named with a protein.

T1: SREBF1, endogenous in NCI-H295R adrenocortical cells (human (endogenous in NCI-H295R)) (UniProt P36956)
T1 sequence: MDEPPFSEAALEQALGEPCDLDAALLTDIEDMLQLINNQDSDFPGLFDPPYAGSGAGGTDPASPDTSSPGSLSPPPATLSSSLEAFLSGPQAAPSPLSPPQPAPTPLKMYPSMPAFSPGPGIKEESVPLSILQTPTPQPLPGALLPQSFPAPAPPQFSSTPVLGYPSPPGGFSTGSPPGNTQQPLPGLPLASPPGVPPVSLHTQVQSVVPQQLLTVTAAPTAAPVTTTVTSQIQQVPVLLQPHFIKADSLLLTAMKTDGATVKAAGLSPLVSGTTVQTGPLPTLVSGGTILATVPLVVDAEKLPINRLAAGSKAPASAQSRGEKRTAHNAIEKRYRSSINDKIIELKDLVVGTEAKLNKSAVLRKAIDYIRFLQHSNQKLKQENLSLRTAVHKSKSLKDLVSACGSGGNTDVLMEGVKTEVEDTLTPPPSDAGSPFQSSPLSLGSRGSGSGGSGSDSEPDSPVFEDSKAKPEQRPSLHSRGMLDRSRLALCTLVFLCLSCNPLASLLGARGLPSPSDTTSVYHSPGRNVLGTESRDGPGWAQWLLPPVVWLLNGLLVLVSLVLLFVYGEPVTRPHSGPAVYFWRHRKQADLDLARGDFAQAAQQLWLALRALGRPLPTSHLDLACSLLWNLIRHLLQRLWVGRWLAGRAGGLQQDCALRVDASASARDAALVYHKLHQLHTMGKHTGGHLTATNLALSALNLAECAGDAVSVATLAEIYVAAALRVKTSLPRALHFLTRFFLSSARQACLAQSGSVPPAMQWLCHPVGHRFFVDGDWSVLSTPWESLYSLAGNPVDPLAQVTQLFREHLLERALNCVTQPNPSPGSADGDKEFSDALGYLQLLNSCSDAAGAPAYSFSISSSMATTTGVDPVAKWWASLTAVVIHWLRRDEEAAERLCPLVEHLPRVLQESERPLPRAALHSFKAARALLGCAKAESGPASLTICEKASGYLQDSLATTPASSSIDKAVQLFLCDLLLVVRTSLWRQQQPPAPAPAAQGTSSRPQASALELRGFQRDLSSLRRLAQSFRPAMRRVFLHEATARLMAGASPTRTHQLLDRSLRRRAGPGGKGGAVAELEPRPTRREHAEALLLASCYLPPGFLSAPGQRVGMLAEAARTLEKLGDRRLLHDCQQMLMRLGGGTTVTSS

T2: FLAG-SREBF2(N), N-terminus of mouse SREBF2 (pcDNA3.1-FLAG-Srebf2(N)) (mouse) (UniProt Q3U1N2)
T2 sequence: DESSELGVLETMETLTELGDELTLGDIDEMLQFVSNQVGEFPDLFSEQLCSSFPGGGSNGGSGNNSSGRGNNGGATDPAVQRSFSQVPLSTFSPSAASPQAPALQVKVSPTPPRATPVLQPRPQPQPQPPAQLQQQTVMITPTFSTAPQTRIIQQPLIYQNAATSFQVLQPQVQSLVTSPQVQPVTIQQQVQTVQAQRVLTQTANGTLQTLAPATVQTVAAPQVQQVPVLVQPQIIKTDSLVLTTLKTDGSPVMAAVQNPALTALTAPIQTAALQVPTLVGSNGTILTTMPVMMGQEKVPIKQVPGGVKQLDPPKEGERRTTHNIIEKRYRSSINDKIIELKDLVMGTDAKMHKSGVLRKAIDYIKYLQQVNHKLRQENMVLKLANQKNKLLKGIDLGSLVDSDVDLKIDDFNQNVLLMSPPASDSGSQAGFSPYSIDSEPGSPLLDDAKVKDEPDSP

T3: FLAG-SREBF1(N), N-terminus of mouse SREBF1, from pcDNA3.1-FLAG-Srebf1(N) in HEK293T (mouse) (UniProt Q9WTN3)
T3 sequence: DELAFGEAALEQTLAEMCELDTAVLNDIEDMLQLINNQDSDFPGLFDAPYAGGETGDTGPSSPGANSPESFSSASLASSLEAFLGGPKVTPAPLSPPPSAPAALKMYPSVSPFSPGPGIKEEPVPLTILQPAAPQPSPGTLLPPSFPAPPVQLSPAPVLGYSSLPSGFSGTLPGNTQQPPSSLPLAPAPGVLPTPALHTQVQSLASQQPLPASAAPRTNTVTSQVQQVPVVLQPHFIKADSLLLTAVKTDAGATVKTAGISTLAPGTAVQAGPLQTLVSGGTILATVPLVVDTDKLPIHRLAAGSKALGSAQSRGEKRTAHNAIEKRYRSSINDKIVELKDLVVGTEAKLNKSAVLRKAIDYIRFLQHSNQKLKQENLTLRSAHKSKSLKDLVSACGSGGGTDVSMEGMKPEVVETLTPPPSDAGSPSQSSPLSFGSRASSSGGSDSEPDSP

T4: FLAG-tagged full-length mouse SREBF1 (pcDNA3.1-FLAG-Srebf1) (mouse) (UniProt Q9WTN3)
T4 sequence: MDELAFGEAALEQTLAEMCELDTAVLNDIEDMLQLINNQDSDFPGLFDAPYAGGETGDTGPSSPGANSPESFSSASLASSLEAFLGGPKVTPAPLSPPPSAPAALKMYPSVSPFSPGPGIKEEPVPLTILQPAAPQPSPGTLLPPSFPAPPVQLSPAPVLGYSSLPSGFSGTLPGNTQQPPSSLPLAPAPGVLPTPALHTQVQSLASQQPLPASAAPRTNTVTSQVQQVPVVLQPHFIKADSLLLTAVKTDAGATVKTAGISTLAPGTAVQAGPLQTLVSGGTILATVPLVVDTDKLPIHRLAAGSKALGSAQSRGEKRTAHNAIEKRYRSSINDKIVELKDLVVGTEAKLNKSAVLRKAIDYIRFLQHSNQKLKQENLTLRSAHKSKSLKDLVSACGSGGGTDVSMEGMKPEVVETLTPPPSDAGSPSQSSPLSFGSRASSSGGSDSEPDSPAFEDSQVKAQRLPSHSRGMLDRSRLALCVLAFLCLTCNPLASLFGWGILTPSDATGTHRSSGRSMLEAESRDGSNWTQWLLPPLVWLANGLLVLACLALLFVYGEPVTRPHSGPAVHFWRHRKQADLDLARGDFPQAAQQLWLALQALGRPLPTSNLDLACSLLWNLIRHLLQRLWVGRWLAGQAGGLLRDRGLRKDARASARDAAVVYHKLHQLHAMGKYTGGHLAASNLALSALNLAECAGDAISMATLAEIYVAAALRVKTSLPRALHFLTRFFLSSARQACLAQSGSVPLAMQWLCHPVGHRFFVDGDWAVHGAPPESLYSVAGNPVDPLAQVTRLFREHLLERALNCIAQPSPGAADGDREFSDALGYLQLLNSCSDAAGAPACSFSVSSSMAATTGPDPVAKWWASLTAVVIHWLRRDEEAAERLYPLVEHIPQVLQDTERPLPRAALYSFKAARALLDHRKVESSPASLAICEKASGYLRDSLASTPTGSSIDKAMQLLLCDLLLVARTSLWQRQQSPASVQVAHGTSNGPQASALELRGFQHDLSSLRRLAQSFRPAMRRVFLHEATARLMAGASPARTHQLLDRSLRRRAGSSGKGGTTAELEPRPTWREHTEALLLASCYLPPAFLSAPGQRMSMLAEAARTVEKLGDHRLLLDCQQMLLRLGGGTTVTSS


What was measured:
[1] = biological target: T1, SREBF1, endogenous in NCI-H295R adrenocortical cells (human (endogenous in NCI-H295R)); assay: proximity ligation; in situ proximity ligation assay (Duolink RED) in fixed, permeabilised NCI-H295R cells with anti-ARMC5 and anti-SREBF1 antibodies
[2] = biological target: T2, FLAG-SREBF2(N), N-terminus of mouse SREBF2 (pcDNA3.1-FLAG-Srebf2(N)) (mouse); assay: co-IP; FLAG IP: HEK293T cells transfected, lysed in TNE buffer (150 mM NaCl, 1% NP40), anti-FLAG M2 Affinity Gel, eluted with FLAG peptide, blotted with anti-myc
[3] = biological target: T3, FLAG-SREBF1(N), N-terminus of mouse SREBF1, from pcDNA3.1-FLAG-Srebf1(N) in HEK293T (mouse); assay: as above
[4] = biological target: T4, FLAG-tagged full-length mouse SREBF1 (pcDNA3.1-FLAG-Srebf1) (mouse); assay: as above

Binder	binding [1]	binding [2]	binding [3]	binding [4]
ARMC5, endogenous in NCI-H295R adrenocortical cells (protein, UniProt Q96C12 1-935) MAAAKPTLTDSLSFCLAQLAAAAGEALGGEKDPATNETPLSRALLALRTRHIKAAGGIERFRARGGLRPLLALLRRAAAAGSAPSQAGPGSAPSSAASGASSPAPASGPAPSAVSSSSPTPPVRLRKTLDLALSILADCCTEGACRTEVRRLGGILPLVTILQCMKTDSIQNRTARALGNLAMEPESCGDIHCAGAVPLLVESLTACQDSQCLQSVVRALRNLADSPQHRLALAQQGAVRPLAELLATAPDAALTLALVRALLELSRGCSRACAEQLSLGGGLGPLVSLASHPKRAVREGTILILANLCAQGLIRPALGNAGGVEVLVDELRQRRDPNGASPTSQQPLVRAVCLLCREAINRARLRDAGGLDLLMGLLRDPRASAWHPRIVAALVGFLYDTGALGRLQALGLVPLLAGQLCGEAGEEEEEGREAASWDFPEERTPERAQGGSFRSLRSWLISEGYATGPDDISPDWSPEQCPPEPMEPASPAPTPTSLRAPRTQRTPGRSPAAAIEEPWGREGPALLLLSRFSQAPDPSGALVTGPALYGLLTYVTGAPGPPSPRALRILSRLTCNPACLEAFVRSYGAALLRAWLVLGVAPDDWPAPRARPTLHSRHRELGERLLQNLTVQAESPFGVGALTHLLLSGSPEDRVACALTLPFICRKPSLWRRLLLEQGGLRLLLAALTRPAPHPLFLFFAADSLSCLQDLVSPTVSPAVPQAVPMDLDSPSPCLYEPLLGPAPVPAPDLHFLLDSGLQLPAQRAASATASPFFRALLSGSFAEAQMDLVPLRGLSPGAAWPVLHHLHGCRGCGAALGPVPPPGQPLLGSEAEEALEAAGRFLLPGLEEELEEAVGRIHLGPQGGPESVGEVFRLGRPRLAAHCARWTLGSEQCPRKRGLALVGLVEAAGEEAGPLTEALLAVVMGIELGARVPA	binds			
myc-tagged mouse ARMC5 (pcDNA3.1-myc-mArmc5) (protein, UniProt Q5EBP3 1-926) MAAARPALTDSLSFCLAQLTAAAGEGPGGGKDPATNETPLGRALLALRTRHIKAAEGIERFRARGGLRPLLALLRRTAAAGPAPSQAASGSAPSSVASAGSTPGHAPAAESLLTPSLPMRLRKTLDLALSILANCCTEGACRAEVRRLGGILPLVTILQCVKTDSIQNRTARALGNLAMEPESCRDIHSAGAVPFLVESLTACQDSQCLQSIVRALRNLADSPQHRLALAQQGAVRPLAELLATAPDPALTAALVRALLELSRGCSRACAEQLSLGGALGPLVSLASHPKRAIREAAILILANLCAQGLVRPALGNAGGVEVLLGELRRRRSPGGSSSATQQPLVRAVCLLCREAINRARLRDAGGLELLMGLLQDPGASAWHPRVVAALVGFLYDTGALGKLQALGLVPLLARQLCGEAGEEEEEGIEAASWDFPEERTSGQAEGGSFRSLRLWLISEGYAAGPGDISPDWSPERCPMPEPSESVSPTPGQTSMSTPRTLRKPGRIPAATPEEPWGQEGPALLLLSRFSQAPDPSGALVTGPALCGLLAYVTGAPGPPNPRALRILARLTCNPACLEAFVRTYGAALLRAWLVLGVSPDDWPVPHARPVHRSQHRELGEMLLQNLTVQAESPFGVGALTHLLLSGSPEDRVACALTLPFICRKPTLWRRLLLDQGGLRLLLTALTQPAPHPLFLFFAADSLSCLQGLVSPTASPVPLPALPLELDSPPPCLYEPLLGPAPAPAPDLHFVLDSGLQLPAQRAASAAASPFFRALLSGSFAEAQMDLVPLRGLSPGAAWPVLHHLHGCRGCGAALGPVPPPGQPLLGSKAEEALEAAGRFLLPALEEELEEAVGRIHLSPRGGPESVGEVFRLGRPRLAAHCARWTLEPGQCPRKRALALTGLVEAAGEEAGPLTEALLAVVMGIES		binds	binds	binds
